We go through 14 molecules from publication PMC12136788.

The other results are listed elsewhere or left out.

First the molecules themselves.
T1: UNK ZnF1-3 (human, UniProt Q9C0B0 31-174)
T1 sequence: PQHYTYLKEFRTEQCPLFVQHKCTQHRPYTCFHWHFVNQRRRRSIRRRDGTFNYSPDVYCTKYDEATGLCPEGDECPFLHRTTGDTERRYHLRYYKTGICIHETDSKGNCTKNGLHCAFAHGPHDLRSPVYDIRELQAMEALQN

B1: chr1:161298228:161298229:+_ENSG00000143252_ENST00000367975|hu_hu|FALSE|FALSE (ssRNA)
RNA: GGGAGUUCUACAGUCCGACGAUCCAUGGGAAGAGACCAACUGUAGAUAGUAAUGUGGGGAGACAGAGGACGGUUUGAACCUAUAUUCUUAUUCCAGAACCGCUCCAUCUCUUCUUUGGCCGUGGUUCCCAAAGGAACAGCAUUCAACAGAGGAUUGAGCAUCA
B2: 135033492_135033612_2786_3pUTR_ENSMUSG00000046062_ENSMUST00000052529|mouse|control|control (ssRNA)
RNA: GGGAGUUCUACAGUCCGACGAUCCUAAUGAGACACAUUACCCAAAAAUAAUCAAACUGCAUCUCUAGAUACAAGUUGUUUCUUUAAAAACAUGUCCAAGGACAGCUGCCAGUGUUUGUUUUUAAGGGAAACUCUCAAGUAAGACAACAGAGGAUUGAGCAUCA
B3: chr2:230653580:230653581:-_ENSG00000153827_ENST00000389045|hu_hu|FALSE|FALSE (ssRNA)
RNA: GGGAGUUCUACAGUCCGACGAUCAGUAAGCCAUGUUGGGAUGUUUCCUGUCAUGAUUACUAAAGGAUCUUGAAGUUGCCUAUUUGCUUUUGCUGUUAACUUACUGUUAAUAAAUUCACUAGUUGGAAUAAUUUCCUUGCACAUCAACAGAGGAUUGAGCAUCA
B4: chr2:179515052:179515053:+_ENSMUSG00000000305_ENSMUST00000000314|mus_hu|mus_mus_mus_hu_False|1_28 (ssRNA)
RNA: GGGAGUUCUACAGUCCGACGAUCGCUGUCCCAUGCAGUCACCGUGAACGCCACCUGCUCGGAGGGGACCUGCAGCUCCCGGGUGGCGAAGACUGUCCCAUCUGCCCCGACUUUGAAGUCCAUGCUGUUGGUCUCAUACUGCAUCAACAGAGGAUUGAGCAUCA
B5: 94875820_94875940_949_CDS_ENSMUSG00000028126_ENSMUST00000107236|mouse|control|control (ssRNA)
RNA: GGGAGUUCUACAGUCCGACGAUCUCCUGGAAGCAACUUCUGCAGAAAUUCUGCUUCUUUAUGCUGGACGGUCUUAAUGAUGAAUUCAUCAUCACUGGACACAUAGAAGAGGGAACCACUAGCUCCAGAAUUGGAGAGUUCAAUCAACAGAGGAUUGAGCAUCA
B6: chr6:114281168:114281169:-_ENSG00000196591_ENST00000368632|hu_hu|FALSE|FALSE (ssRNA)
RNA: GGGAGUUCUACAGUCCGACGAUCUUCCAUUUUUCUGUAUAAGCCAUAAUUUAACAGCAAGUUAUGGGUCAUGCGGAUUCUAUGAGGCUUCAUGGGAUGACCCUGUCCAUAAUAAUAAUUUCCAAUAUCACAGAUUCACUAGAACAACAGAGGAUUGAGCAUCA
B7: chr7:54823571:54823572:-_ENSG00000132432_ENST00000352861|hu_hu|FALSE|FALSE (ssRNA)
RNA: GGGAGUUCUACAGUCCGACGAUCUCCCAUUAUAGCAAAUCCUAUUGCUGUUGCCAUGGCAAUCUUCUGGAAUUCUUUUCUAUCAGGUUUAGUGCAUCUUUUAACCAGCCGAAUGGAGUCCUUUACAAACUGCCGACUUGGCUCCAACAGAGGAUUGAGCAUCA
B8: chr7:65705844:65705845:+_ENSG00000169902_ENST00000304842|hu_mus|hu_hu_hu_mus_False|8_78 (ssRNA)
RNA: GGGAGUUCUACAGUCCGACGAUCAAACGGAUCUUUGUUACAUAAAUAAGGUGCCGGCUCCCCAUGCUUAACAAUGACCUCCAGAAGGAAGGCUUGCAUGGCAGAAUCUAGCACUUCAUCUGUGACACCAGCCUCAUCCAAGCGCAACAGAGGAUUGAGCAUCA
B9: chr1:183139419:183139420:-_ENSMUSG00000038733_ENSMUST00000162963|mus_hu|motif|central (ssRNA)
RNA: GGGAGUUCUACAGUCCGACGAUCUUAUCCCAGUCUCCUUCCAUGACAUGAUUUCGGAAUUUGGUAGCAGAAGGAUGUUCGGAACGACAUCCUGACUCUUGCAUGAGGAGAUCAACAGUCUGGUUGAGCCCUAAGCCAUUCAAGCAACAGAGGAUUGAGCAUCA
B10: chr2:9570881:9570882:+_ENSG00000119203_ENST00000238112|hu_mus|hu_hu_hu_mus_False|18_18 (ssRNA)
RNA: GGGAGUUCUACAGUCCGACGAUCACUUGUCUUCUGAAGGAACCAGGGCAGGGCUCCACAGUGAUCCAAAUGGAAAUGACUGAUCAACAGAAGGUCGAUCUCAGCUGGGUCGAUAAGAUCAAUAUAAGGAAGGGCAUCCAUUCCCAACAGAGGAUUGAGCAUCA
B11: chr2:175006660:175006661:-_ENSG00000138430_ENST00000344357|hu_mus|FALSE|FALSE (ssRNA)
RNA: GGGAGUUCUACAGUCCGACGAUCUAGAAUGGGCCCAAUCAUCUCCUCGUCCUUCAGCUGGAGCUCCUCGUGAAUUAUCUCUAUGUCUCGGAUGGGAUCUACACUUCCUUCAACAUGCGUGAUAUCAUCGUCUUCAAAAGCACGCAACAGAGGAUUGAGCAUCA
B12: chr3:197678047:197678048:+_ENSG00000182899_ENST00000448864|hu_mus|FALSE|FALSE (ssRNA)
RNA: GGGAGUUCUACAGUCCGACGAUCUUAAGAAGAGCCGUGUGCUCUCUUUGGUUCCGGAGACCUCGCUUGUAGCCAGCAAAAAUGGCCUUGCACCACAGCCUUCCAGACAUACUUGCUGUUAGAAGUCCUGUUCCCAGCAGGCCUCAACAGAGGAUUGAGCAUCA
B13: chr3:103546164:103546165:-_ENSMUSG00000008730_ENSMUST00000118317|mus_mus|FALSE|FALSE (ssRNA)
RNA: GGGAGUUCUACAGUCCGACGAUCUGAGAACUGAGCUGAAGAUCCAAAAUGGAACGGGACAGAGGUGGCAGUUAAGGAGGAAAGCUGCGGCUUUGACUUGUCACUGUCGGUAGGGAGACUGAGAACACGAACGCAUUUACACAACAACAGAGGAUUGAGCAUCA
B14: chrX:71549400:71549401:+_ENSMUSG00000019087_ENSMUST00000019231|mus_hu|mus_mus_mus_hu_False|1_68 (ssRNA)
RNA: GGGAGUUCUACAGUCCGACGAUCGCAGUAGGAAGAGGGAAGCUCUUCAGUCCAGUGCGCUGCAGGGAGAAACAUGAACAACACGGACACCGUCCCACCCUCAACCCCCCCACUGGCACAGGGUCACACAAUCUGGGAAGUGAUCAACAGAGGAUUGAGCAUCA

This test addresses T1, UNK ZnF1-3. The experiment in a line: nsRBNS (natural sequence RNA bind-n-seq); RBNS binding buffer (assumed for nsRBNS): 25 mM Tris pH 7.5, 150 mM KCl, 3 mM MgCl2, 0.01% Triton X-100, 500 ug/ml BSA, 20 U/ml SUPERase-In, 4 C; UNK is unkempt and MSI1 is Musashi-1; names of the RNAs are library labels; protein concentration not given here; high values mean tight binding.
As to B1, the binding signal was 1.11 enrichment R.

B2 showed a binding signal of 0.949 enrichment R.

Molecule B3 gave a binding signal of 0.595 enrichment R.

In the case of B4, the binding signal was found to be 0.552 enrichment R.

Take B5: the binding signal stood at 1.07 enrichment R.

The molecule B6 came in with a binding signal of 1.02 enrichment R.

B7 had a binding signal of 0.682 enrichment R.

B8 had a binding signal of 0.56 enrichment R.

In the case of B9, the binding signal worked out at 0.544 enrichment R.

In turn, B10 showed a binding signal of 1.17 enrichment R.

As for B11, the binding signal worked out at 0.801 enrichment R.

Regarding B12, the binding signal was 0.657 enrichment R.

For the molecule B13, the binding signal is 1.23 enrichment R.

As to B14, the binding signal came out at 1.57 enrichment R.
